According to PubChem BioAssay AID488969 (Vanderbilt High Throughput Screening Facility, 2010):
Over roughly 110,000 compounds, “z-score” has its median near -0.1; the highest 2% begin near 2. The list shows a part of the results.

molecular target: Metabotropic glutamate receptor 8 (Rattus norvegicus) (UniProt P70579); test: rat mGluR8 modulators via GIRK flux, primary screen, cell-based, thallium flux, HTS (AID 488969); details: HEK293 rat mGluR8, GIRK (G protein-gated inwardly rectifying potassium channel) thallium flux, FluoZin2; at 10 µM; stronger effect = higher value; submaximal glutamate (EC20) added with thallium
Chain of UniProt P70579 (P70579 whole entry, looked up): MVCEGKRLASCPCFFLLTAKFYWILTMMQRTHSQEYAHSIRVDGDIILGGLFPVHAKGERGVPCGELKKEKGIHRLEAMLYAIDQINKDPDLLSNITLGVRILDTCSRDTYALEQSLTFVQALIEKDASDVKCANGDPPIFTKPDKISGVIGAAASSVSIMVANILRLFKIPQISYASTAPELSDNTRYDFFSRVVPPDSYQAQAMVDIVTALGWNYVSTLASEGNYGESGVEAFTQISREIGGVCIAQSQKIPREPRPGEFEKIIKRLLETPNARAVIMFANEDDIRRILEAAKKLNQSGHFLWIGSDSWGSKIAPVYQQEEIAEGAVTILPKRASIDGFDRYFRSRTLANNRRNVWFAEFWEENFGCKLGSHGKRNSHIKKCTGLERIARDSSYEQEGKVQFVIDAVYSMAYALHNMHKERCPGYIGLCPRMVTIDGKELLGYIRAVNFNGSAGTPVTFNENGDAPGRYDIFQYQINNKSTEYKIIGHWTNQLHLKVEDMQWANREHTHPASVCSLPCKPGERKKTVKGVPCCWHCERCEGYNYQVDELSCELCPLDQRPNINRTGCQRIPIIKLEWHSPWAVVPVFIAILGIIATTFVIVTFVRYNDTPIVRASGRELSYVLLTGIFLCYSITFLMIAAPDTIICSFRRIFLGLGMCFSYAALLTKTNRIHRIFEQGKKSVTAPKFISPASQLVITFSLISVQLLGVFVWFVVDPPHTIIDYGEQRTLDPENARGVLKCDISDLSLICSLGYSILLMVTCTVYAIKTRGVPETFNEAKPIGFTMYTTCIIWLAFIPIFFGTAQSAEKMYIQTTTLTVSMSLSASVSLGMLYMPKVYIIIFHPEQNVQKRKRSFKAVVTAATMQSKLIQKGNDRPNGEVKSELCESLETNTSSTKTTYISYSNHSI

SMILES	z-score
COC(=O)C1=C(CSc2nc3ccccc3o2)NC(=O)NC1c1cc(C)ccc1C (centres undefined)	0.178
CCOc1ccc(-n2c(Cc3cc(=O)[nH]c(=O)[nH]3)nnc2SC(C)C)cc1	-0.225
C=CCNCCCCOc1ccc(C)cc1[N+](=O)[O-]	-1.05
O=C(/C=C/Sc1ccccc1)c1ccccc1	0.728
COc1cc2c(cc1NC(=O)CN(C)Cc1cccc(OC)c1OC)oc1ccccc12	-0.32
CCN(CC)c1ccc(NC(=O)COc2ccccc2C#N)cc1S(=O)(=O)Nc1ccc(OC)cc1	-0.103
Nc1cc(=O)[nH]c(=O)n1Cc1ccco1	0.299
CN(Cc1ccco1)C(=O)C1CCC(=O)N1Cc1ccc(F)cc1 (centres undefined)	0.0462
Cc1cccc(NC(=O)/C=C/c2ccc3c(c2)OCO3)n1	-0.563
Cc1cccc(NC(=S)NC2CCN(Cc3ccccc3)CC2)c1C	0.394
CCOC(=O)c1c(NC(=O)Cn2nnc(-c3ccc(Cl)cc3)n2)sc(C)c1C	0.235
CC(C)OC(=O)CSc1nnc(CNc2ccc(Cl)cc2)n1Cc1ccccc1	-0.0845
CCCCCCc1cc2cc(C(=O)Nc3ccccc3OC)c(=O)oc2cc1O	-0.286
Cc1ccc(-c2noc(CN3C(C)CCCC3C)n2)cc1 (centres undefined)	-0.323
O=C(O)CCc1nc(-c2ccccc2)no1	0.336
N=c1ccn(Cc2ccc(Cl)cc2Cl)cc1	-0.0779
Cc1cnc(C(=O)OCC(=O)Nc2oc(-c3ccccc3)c(-c3ccccc3)c2C#N)cn1	1.12
Cc1c(N2C(=O)c3cccc4cccc(c34)C2=O)c(=O)n(-c2ccccc2)n1C	0.0332
COc1ccccc1C(=O)Nc1cc2c(ccc3ccccc32)oc1=O	0.145
Cc1cc(C)nc(NS(=O)(=O)c2ccc(NS(=O)(=O)c3ccccc3)cc2)n1	-0.459
CCOc1ccc(N2C(=O)CC(NCc3ccc(F)cc3)C2=O)cc1 (centres undefined)	-0.252
CC1(C)CC(NCc2ccc3c(c2)OCO3)CCO1 (centres undefined)	-0.0457

SMILES	z-score
CCOc1ccc(-n2c(Cc3cc(=O)[nH]c(=O)[nH]3)nnc2SCC)cc1	-0.0558
COc1ccc(C)cc1S(=O)(=O)N1CCN(S(=O)(=O)c2cc(C)ccc2OC)CC1	-0.0891
COc1ccc(C2(CNC(=O)C(c3ccccc3)c3ccccc3)CCOCC2)cc1OC	0.0252
C=CCC1(O)C(=O)N2C(=C1C(=O)N1CCOCC1)c1ccccc1CC2(C)C (centres undefined)	-0.313
CCc1nc2c(cnn2-c2ccc(F)cc2)c(=O)n1-c1ccc(N2CCC(C)CC2)cc1	-0.3
COc1ccc(-c2[nH]nc3c2C(c2ccc(OC(=O)N4CCOCC4)cc2)C(C#N)=C(N)O3)cc1 (centres undefined)	-0.365
CCN(CC)CCOc1nnc(-c2ccc(C)cc2)c2ccccc12	1.19
COC(=O)c1[nH]c2c(c1C)C(=O)CC(c1ccc(C)cc1)C2 (centres undefined)	-0.49
COc1cccc(OCCNC(=O)c2ccccc2Sc2ccccc2C#N)c1	-0.266
COc1ccc(N(CC(=O)NCc2cccs2)S(=O)(=O)c2c(C)n[nH]c2C)cc1	-0.505
CC1=CN2C(=N)/C(=C/c3ccc([N+](=O)[O-])o3)C(=O)N=C2S1	-0.394
COC(=O)c1cccc(NC(=O)CSc2nc3cccnc3n2C)c1	-0.0491
CC(C)(C)c1cccc(OCCCSc2ncccn2)c1	-0.207
Cc1cc(C)nc(N2CCCC(C(=O)Nc3nnc(C(C)C)s3)C2)n1 (centres undefined)	-0.0456
CSc1nsc(SCC(=O)Nc2nc3ccc(C)cc3s2)n1	-0.0744
COc1ccc([N+](=O)[O-])cc1NC(=S)NC(NC(=O)Cc1ccc(OC)c(OC)c1)C(Cl)(Cl)Cl (centres undefined)	-0.227
Cn1nc(-c2ccc(Cl)cc2)c2cc(C(=O)NCCN3CCOCC3)sc21	0.173
CC(=O)N1CC2(C)CN(C(C)=O)CC(C)(C1)C2O (centres undefined)	-0.104
CCNS(=O)(=O)c1ccc(NC(=O)c2cc(C(F)(F)F)nn2C)cc1	-0.301
O=C(NC(=S)Nc1nc(-c2cccc3ccccc23)cs1)c1cc2ccccc2o1	0.00499
CCOc1cccc(NC(=O)CSc2nc(C)c3c(c2C#N)CCCC3)c1	0.548
C=CCn1c(O)c(N=NC(=O)CNC(=O)c2cccs2)c2ccccc21	-0.247

SMILES	z-score
COc1ccc(CCn2c(N3CCOCC3)nc3c2c(=O)[nH]c(=O)n3C)cc1	-0.0892
Cn1nc(CC(=O)NC2CCCCC2)c2ccccc2c1=O	-0.0244
COc1cc(/C=N/NC(=S)NCc2ccco2)cc(OC)c1OC	-0.66
Cc1ccc(S(=O)(=O)N2CC3(C)CN(S(=O)(=O)c4ccc(C)cc4)CC(C)(C2)C3=O)cc1	0.0212
CCC(C)(C(=O)NC1CCCCC1)N(Cc1cccs1)C(=O)Cc1cccs1 (centres undefined)	-0.648
CC(C)COCC(O)CCC(=O)NNC(=S)Nc1ccccc1 (centres undefined)	0.0799
CCc1nnc(NS(=O)(=O)c2ccc(N/C=C\C(=O)c3ccc4ccccc4c3)cc2)s1	-0.277
CC(C)Cn1ccc(=O)n(CC(C)C)c1=O	0.347
CCn1c(COc2ccc(=O)n(-c3ccccc3)n2)nnc1SCc1ccc(OC)cc1	-0.486
Cc1ccc(S(=O)(=O)Nc2cc(=O)[nH]c(SCc3ccc(Cl)cc3)n2)cc1	-0.142
COC(=O)c1ccc2c(=O)n(CCCN3CCCC3=O)c(=S)[nH]c2c1	0.11
CS(=O)(=O)N1CCC(C(=O)NCCC2=CCCCC2)CC1	0.682
CC(=O)c1ccc(N2CCCC2)c(F)c1	2.4
CCCCN(C)CCC(=O)Nc1ccc(F)c(F)c1	-0.212
CCOC(=O)c1c(C)[nH]sc1=S	0.451
COc1ccc(C(=O)NC(=S)Nc2ccc([N+](=O)[O-])cc2C)cc1OC	1.42
CCOc1ccc(NC(=O)Nc2ccc3nccnc3c2)cc1	-0.163
Cc1ccc2c(c1)CCCN2C(=O)Nc1ccc2c(c1)OCO2	-0.378
COc1ccc2c(c1OC)C(=O)OC2Nc1nc(-c2ccc(-c3ccccc3)cc2)cs1 (centres undefined)	-0.242
COC(=O)C(N)Cc1ccc(O)cc1 (centres undefined)	-0.377
COC(=O)c1ccc(CSc2nnc(CNC(=O)c3cccs3)o2)o1	-0.239
O=C(O)C1C2C=CC(C2)C1C(=O)Nc1ccc2c(c1)OCCO2 (centres undefined)	-0.0164

SMILES	z-score
O=C1C2CCCN2C(c2ccccc2F)N1c1cccc(Cl)c1 (centres undefined)	0.05
CCOC(=O)C(CC)/C(C)=N\NC(=O)c1ccccc1O (centres undefined)	-0.097
CN1c2ccccc2C(C)(C)C12CC(c1ccc(Cl)c(S(=O)(=O)N3CCCC3)c1)=NO2 (centres undefined)	-0.0734
O=c1oc2cc(OCc3c(F)c(F)c(F)c(F)c3F)ccc2cc1-c1ccccn1	-0.0107
Cc1onc(-c2c(F)cccc2Cl)c1C(=O)Nc1nc2c(s1)CCCC2	-0.0855
O=C(CCC(=O)OCc1ccc(C(=O)Oc2ccccc2)cc1)Nc1cccc2ccccc12	-0.345
CCC1=NC(c2ccc(OC)cc2OC)N(O)C1(C)C (centres undefined)	-0.547
CCOC(=O)C1CCN(Cc2ccc(F)cc2F)CC1	0.242
O=C(NC(Nc1ncccn1)C(=O)c1ccccc1)c1ccccc1 (centres undefined)	-0.81
COc1cccc(/C(C)=N/NC(=O)c2cc(-c3cccnc3)nc3ccccc23)c1	-0.465
N#Cc1c(SCC(=O)N2CCOCC2)nsc1SCC(=O)N1CCOCC1	0.366
Cc1nc(SCC(=O)Nc2cc(Cl)ccc2[N+](=O)[O-])nc(C)c1C	-0.447
O=C(CCNc1cccc(C(F)(F)F)c1)c1ccco1	0.394
CCC1CSC(Nc2ccc(C(=O)/C=C/c3ccc(Br)cc3)cc2)=N1 (centres undefined)	0.0423
O=C(NC(=S)Nc1ccc(N2CCOCC2)c(Cl)c1)C(c1ccccc1)c1ccccc1	0.604
OCCN(/C=N/c1nc(-c2ccc(Br)cc2)cs1)CCO	0.088
COC(=O)c1sc2ccccc2c1NC(=O)c1ccc(S(=O)(=O)N2CC(C)CC(C)C2)cc1 (centres undefined)	0.0183
CCc1c(C)c2ccc(OCC(N)=O)cc2oc1=O	-0.195
CC1CN(S(=O)(=O)c2cccc(C(=O)NCc3ccc4c(c3)OCO4)c2)CC(C)O1 (centres undefined)	-0.123
O=C(c1ccc(COc2ccccc2Cl)o1)N1CCCC1	-1.8
CC(=O)Cc1nsc(NC(=O)c2ccc(-c3cc(C(F)(F)F)ccc3Cl)o2)n1	0.485
COc1ccc(/C=C/C(=O)Nc2c(C)nn(C)c2C)cc1COc1ccc(Br)cc1	0.177

SMILES	z-score
CCCCN(CC)CCNc1c(NC2CCN(C(=O)OCC)CC2)c(=O)c1=O	-1.21
C=CCOC(=O)C1=C(C)NC(=O)NC1c1ccc(Cl)cc1 (centres undefined)	-0.279
COc1ccc(F)cc1S(=O)(=O)NC1CCCC1	0.43
Cc1nnc2sc(SCC(=O)Nc3nccs3)nn2c1=O	-0.192
O=C(CC(NS(=O)(=O)c1ccc(Cl)cc1)c1ccco1)N1CCc2ccccc21 (centres undefined)	-0.213
O=C(Oc1ccc(OC(=O)C2CCC2)cc1)C1CCC1	0.114
Cc1ccc(S(=O)(=O)c2nc(-c3cccs3)oc2SCC(N)=O)cc1	0.451
CCN1CCN(C(CNC(=O)c2ccc3c(c2)OCO3)c2cccnc2)CC1 (centres undefined)	-0.319
O=C(NCCc1nc2ccccc2[nH]1)c1ccc(F)cc1	0.297
Cc1ccc(N2CCN(C(=S)c3ccc(N(C)C)cc3)CC2)cc1	0.175
CN=C(Nc1cc(C)nn1CCC#N)c1ccccc1	1.23
COc1ccc(OCC(=O)OCC(=O)Nc2ccc(S(=O)(=O)N3CCCCC3)cc2)cc1	-0.684
Cc1cc(C)cc(NC(=O)CN2CCN(c3ncccn3)CC2)c1	-0.465
C/C(CC1(O)C(=O)Nc2ccccc21)=N\O (centres undefined)	-1.49
COc1ccc(Cn2cc(F)c(=O)n(CCC(C)C)c2=O)cc1[N+](=O)[O-]	0.118
Cc1ccc(C(=O)COC(=O)c2ccc(-c3cnc4ccccc4n3)cc2)cc1C	-0.0949
CC(=O)c1ccc(OCC(O)CN2CCN(CC(O)COc3ccc(C(C)=O)cc3)CC2)cc1 (centres undefined)	0.453
Cc1cc(C)n(C(C)n2nc(C)cc2C)n1	0.681
CN(C)CCSc1nc(N)c2c3c(sc2n1)COC(C)(C)C3	0.731
Cc1ccc2nc(C)cc(C(=O)OCC(=O)c3ccc(Cl)c([N+](=O)[O-])c3)c2c1	-0.503
N#Cc1cc(S(=O)(=O)c2ccccc2)c(N)[nH]c1=O	0.026
